Results as given in the supplement of paper PMC10126150.
Values marked as one replicate rest on one cluster of the flow cell; about a third of the high ones do not repeat.

Tested on: ATP
Assay: switch fluorescence ratio, 500 uM ATP over buffer (Cy3 cluster intensity, sum of 5 cycles each) (fold (ratio)); higher = stronger signal-on switching upon ATP binding; sequences stand for … in TCGTCGGCAGCGTCAGATGTGTATAAGAGACAGTTTTTTTTTTTTTTTTTTTTTTTTT…TC
Conditions: aptamer strand: ATP DNA aptamer (quencher-CACCTGGGGGAGTATTGCGGAGGAAGG + anchor), 100 nM annealed; ATP concentration: 500 uM; one replicate
Method in brief: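 Imaging in selection buffer was followed by imaging after 15 min with 500 uM ATP at 22 °C, for Cy3-labelled switching-strand clusters annealed to 100 nM quencher-labelled ATP aptamer on a modified Illumina MiSeq flow-cell. Five of these buffer/ATP cycles ran, separated by NaOH stripping and re-annealing. The fluorescence ratio per cluster is summed target-cycle over summed buffer-cycle Cy3 intensity, averaged per switch-domain sequence; clusters outside 100-1000 RFU were removed.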
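Note: ATP exposure 15 min at 22 °C before imaging.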

In the case of TGGTTTAAGC, the switch fluorescence ratio was 0.975.
AGTTCATTG was tested, and the switch fluorescence ratio was 0.962.
Sequence CGTTTCCGGG has a switch fluorescence ratio of 0.991.
TTTGAATTC was tested, and the switch fluorescence ratio was 1.02.
In the case of CTTAAAGTTC, the switch fluorescence ratio was 1.02.
Work on CCACATAGTA yielded a switch fluorescence ratio of 1.
In the case of GGCACAATTA, the switch fluorescence ratio was 1.
With GGATATTTAC the switch fluorescence ratio was 1.03.
Sequence TAAGAGATC has a switch fluorescence ratio of 1.05.
ATGACGAGTT gave a switch fluorescence ratio of 0.939.
Work on AACAGCCATC yielded a switch fluorescence ratio of 1.12.
ATGCTGCCGG showed a switch fluorescence ratio of 0.963.
CAGATGTGGA showed a switch fluorescence ratio of 0.997.
With AAGAGGAGTA the switch fluorescence ratio was 1.01.
With CATTAATGG the switch fluorescence ratio was 0.966.
CAATGTTGGC was tested, and the switch fluorescence ratio was 0.998.
With TTTAGATCCC the switch fluorescence ratio was 0.977.
In the case of GCTGTGACAC, the switch fluorescence ratio was 1.06.
Sequence AACAAACTTC has a switch fluorescence ratio of 1.32.
Work on TAGGTGTATT yielded a switch fluorescence ratio of 1.05.
For TATGCGCGT, the switch fluorescence ratio was 1.03.
TGAATTCGGT gave a switch fluorescence ratio of 0.972.
CCCCACCGAG showed a switch fluorescence ratio of 1.06.
With TTATTTTGAT the switch fluorescence ratio was 0.931.
CCGGGTGCAT gave a switch fluorescence ratio of 1.94.
With ATACGGGCT the switch fluorescence ratio was 0.934.
CATCAGTAA was tested, and the switch fluorescence ratio was 1.38.
TTCAGTATTA gave a switch fluorescence ratio of 1.09.
With CACCGGCTCT the switch fluorescence ratio was 1.03.
GAAGGAATTT was tested, and the switch fluorescence ratio was 1.28.
Work on GCGGCCTCTC yielded a switch fluorescence ratio of 1.06.
For TGACCTTTGC, the switch fluorescence ratio was 1.05.
Work on CGAGTACATA yielded a switch fluorescence ratio of 1.14.
In the case of ACGTGGGCA, the switch fluorescence ratio was 0.963.
In the case of ATGTAAGGTC, the switch fluorescence ratio was 1.01.
CACAAAGGGA gave a switch fluorescence ratio of 0.991.
TGGGCAAACC was tested, and the switch fluorescence ratio was 1.13.
TGTGTATGC gave a switch fluorescence ratio of 0.975.
TGAGTTAAAA gave a switch fluorescence ratio of 1.03.
TCAAGGTCTG was tested, and the switch fluorescence ratio was 1.
CGAGATGTTG gave a switch fluorescence ratio of 1.
Sequence GATTTATTTC has a switch fluorescence ratio of 0.964.
With CCGAGGGTCG the switch fluorescence ratio was 1.01.
For AGAGTTTCA, the switch fluorescence ratio was 0.989.
With AAGGATTGCC the switch fluorescence ratio was 1.01.
With ATTCATGCT the switch fluorescence ratio was 0.994.
ACGCCTCTGG gave a switch fluorescence ratio of 1.02.
CTGACCGATA was tested, and the switch fluorescence ratio was 1.25.
GCGGTTGTCA was tested, and the switch fluorescence ratio was 0.961.
For AATCCGTTCG, the switch fluorescence ratio was 1.03.
In the case of CTGACTTGT, the switch fluorescence ratio was 1.02.
For ACCCGTATCA, the switch fluorescence ratio was 1.02.
For ATTTATACTA, the switch fluorescence ratio was 0.978.
AGAGATCAAT was tested, and the switch fluorescence ratio was 1.01.
Sequence TCCAATAAAT has a switch fluorescence ratio of 0.998.
With GACATTATGG the switch fluorescence ratio was 1.03.
Sequence ACAAGTGGGA has a switch fluorescence ratio of 0.998.
Sequence TTGTTTTACG has a switch fluorescence ratio of 1.03.
GAGATGTGCT showed a switch fluorescence ratio of 0.963.
For TATTCCTCAG, the switch fluorescence ratio was 1.29.
In the case of TATCGTGTAG, the switch fluorescence ratio was 1.01.
With TGTAAGTACG the switch fluorescence ratio was 1.24.
With GAGAGGAGTT the switch fluorescence ratio was 0.997.
In the case of CGAAAGGGCG, the switch fluorescence ratio was 1.03.
AACTGTTAAT showed a switch fluorescence ratio of 1.01.
With CATGAATGT the switch fluorescence ratio was 1.03.
In the case of GTGGGCATAC, the switch fluorescence ratio was 2.05.
In the case of GCGGTGTCGT, the switch fluorescence ratio was 0.992.
Work on GGTTGAGTTG yielded a switch fluorescence ratio of 1.02.
Sequence CGGTACGTCC has a switch fluorescence ratio of 1.
Work on GATATGCTG yielded a switch fluorescence ratio of 1.07.
CCAGAAGTTG was tested, and the switch fluorescence ratio was 0.995.
With AATGGATTTA the switch fluorescence ratio was 0.989.
In the case of TGAGTGTTAA, the switch fluorescence ratio was 0.974.
CAAGAGAGGG was tested, and the switch fluorescence ratio was 1.01.
With ATGACCAGCA the switch fluorescence ratio was 1.11.
For GTCACATATT, the switch fluorescence ratio was 1.01.
Sequence TAAGGATGAT has a switch fluorescence ratio of 1.
In the case of AAGCTTACA, the switch fluorescence ratio was 1.02.
For CTCATGTGTG, the switch fluorescence ratio was 1.02.
TACATTATCC gave a switch fluorescence ratio of 1.08.
GAATTAGAAT showed a switch fluorescence ratio of 0.96.
TTATTGCTGC was tested, and the switch fluorescence ratio was 1.01.
TCTGTTCAAT gave a switch fluorescence ratio of 0.999.
Work on GTGGTCAGCT yielded a switch fluorescence ratio of 0.975.
CGGACAGTGG was tested, and the switch fluorescence ratio was 1.02.
CTGGATCTGC showed a switch fluorescence ratio of 1.09.
Work on ATATTGGATG yielded a switch fluorescence ratio of 0.99.
For AGATGGTGT, the switch fluorescence ratio was 1.01.
For TAACAGGACG, the switch fluorescence ratio was 0.967.
In the case of ATATAACGGC, the switch fluorescence ratio was 1.03.
GTATTATAGC showed a switch fluorescence ratio of 0.938.
AGTACTCGA was tested, and the switch fluorescence ratio was 1.
CTTATGCAAA was tested, and the switch fluorescence ratio was 1.07.
With ACTACTAAGA the switch fluorescence ratio was 1.09.
For TCCTTGTA, the switch fluorescence ratio was 1.
In the case of TTGTAATCTG, the switch fluorescence ratio was 0.986.
Work on TGCTTCCTGG yielded a switch fluorescence ratio of 1.11.
For AAACCATAGT, the switch fluorescence ratio was 1.08.
ACAGCCGACT was tested, and the switch fluorescence ratio was 1.05.
GTCTAAGTAA was tested, and the switch fluorescence ratio was 1.03.
With CATTGCTATG the switch fluorescence ratio was 1.05.
In the case of GCCAGTGAGA, the switch fluorescence ratio was 1.04.
Work on TGAGCCCTAC yielded a switch fluorescence ratio of 1.11.
In the case of TAGTGTCCCC, the switch fluorescence ratio was 1.07.
Work on TTCGTTTTG yielded a switch fluorescence ratio of 1.
Work on ACAAAGGGCC yielded a switch fluorescence ratio of 1.01.
Sequence TATGAATCA has a switch fluorescence ratio of 0.999.
GGCCTGGCCG gave a switch fluorescence ratio of 1.02.
TTTACCCTTC showed a switch fluorescence ratio of 1.09.
With ACAGAGTCGT the switch fluorescence ratio was 0.973.
AGGGCGTGAC gave a switch fluorescence ratio of 0.999.
AAAAGCATCT was tested, and the switch fluorescence ratio was 1.02.
TAGGGCGAGT gave a switch fluorescence ratio of 1.03.
With TCATGAGGCT the switch fluorescence ratio was 0.983.
Work on TCCAAAGTTT yielded a switch fluorescence ratio of 1.04.
CGTGTACCGT showed a switch fluorescence ratio of 0.985.
Sequence GAATAACGTG has a switch fluorescence ratio of 1.
GAGAGAGCTT was tested, and the switch fluorescence ratio was 0.978.
For ACGTTTAAAG, the switch fluorescence ratio was 0.997.
GGCGTACGCA gave a switch fluorescence ratio of 1.05.
Work on TTCAGATGT yielded a switch fluorescence ratio of 1.01.
AACGTAAA was tested, and the switch fluorescence ratio was 1.15.
TGTAGGATTA was tested, and the switch fluorescence ratio was 1.05.
With CCAACTATAA the switch fluorescence ratio was 1.07.
In the case of CCATCGAGCG, the switch fluorescence ratio was 1.
For GACCGAGGCC, the switch fluorescence ratio was 1.02.
AAGCAGGTTG was tested, and the switch fluorescence ratio was 1.04.
ACTAAGCAAG was tested, and the switch fluorescence ratio was 1.33.
AGGTAGTGCG showed a switch fluorescence ratio of 0.955.
Work on TGCGGCTTTG yielded a switch fluorescence ratio of 0.992.
GCGCTGTATC was tested, and the switch fluorescence ratio was 1.03.
Sequence AAATGGGGT has a switch fluorescence ratio of 1.04.
In the case of CCAGTTCATC, the switch fluorescence ratio was 1.02.
Work on TTTGATTAGT yielded a switch fluorescence ratio of 1.01.
For AGGGGCTCTG, the switch fluorescence ratio was 1.03.
In the case of GGATTGCATT, the switch fluorescence ratio was 1.01.
ATGAAGGCCC was tested, and the switch fluorescence ratio was 1.02.
With GGCTGACTAG the switch fluorescence ratio was 0.977.
In the case of CCATGTTTCT, the switch fluorescence ratio was 0.939.
ATGGATGATA showed a switch fluorescence ratio of 0.98.
ACGGAAGAGG gave a switch fluorescence ratio of 1.04.
GTGCGAGCGT gave a switch fluorescence ratio of 0.973.
GTCCAATTGT gave a switch fluorescence ratio of 0.978.
Work on AAGGACCATC yielded a switch fluorescence ratio of 1.02.
For CCGGACCGCC, the switch fluorescence ratio was 1.79.
Sequence CCCAAGATGT has a switch fluorescence ratio of 1.75.
CGCATTCCGA gave a switch fluorescence ratio of 1.33.
With GGGAAATCCT the switch fluorescence ratio was 1.12.
Sequence ACTAGAAACA has a switch fluorescence ratio of 1.04.
ATATCAGCGG showed a switch fluorescence ratio of 0.99.
With TTTTAATCGC the switch fluorescence ratio was 0.991.
AACGGGCATA was tested, and the switch fluorescence ratio was 1.05.
CATGCTGTTT showed a switch fluorescence ratio of 0.997.
In the case of CACAGTGCTC, the switch fluorescence ratio was 1.16.
Work on ATTCTGAGGA yielded a switch fluorescence ratio of 0.9.
Sequence TTCCAGAGGT has a switch fluorescence ratio of 0.994.
ACTTGCATGA was tested, and the switch fluorescence ratio was 1.07.
